# From ChEMBL document CHEMBL4888484, “Replenishing the malaria drug discovery pipeline: Screening and hit evaluation of the MMV Hit Generation Library 1 (HGL1) against asexual blood stage Plasmodium falciparum ,using a nano luciferase reporter read-out” (2022)
# Among all 4,800 compounds or so, about 410 (8.5%) showed an effect of 50% or more. Some of the results follow.
# Test system: Plasmodium falciparum
# Experiment: Confirmatory screen in NF54 pLDH assay, in single point, at 2uM, 72h
# Type: functional, Erythrocyte
# Settings: timepoint 72 hour
row,SMILES,% Inhibition [%]
1,Cc1cc(=O)c(OCC(=O)N2CCN([C@@H](c3ccccc3)c3ccc(Cl)cc3)CC2)c[nH]1,74
2,CC(CCc1ccccc1)N1C(=O)NC(=O)C2(Cc3c(ccc4ccccc34)N(C)C2)C1=O (configuration not stated),6
3,COc1cnc(C(F)(F)F)nc1N1CCNCC1,9
4,CCN1C[C@]2(COC)CC[C@H](OC)[C@@]34C5C[C@@H]6[C@@H](OC)C[C@@](O)(C5[C@H]6OC(=O)c5ccccc5)[C@@H](CC23)C14 (some centres not stated),13
5,Cc1ccccc1[C@H](C)NC1=NCCO1,6
6,CC1CCCCC1N1CCN(C(=O)COc2ccc(Br)cc2)CC1 (configuration not stated),10
7,Cc1cccc(CN(C)C)c1OC(=O)N(C)C,12
8,Cc1cc(C(F)(F)F)c2c(C(N)=O)cn(C(C)(C)C)c2n1,11
9,COc1ccc(-c2cc([C@H]3CN4CC[C@H]3C[C@@H]4CNC(=O)C3CCCCC3)n(C)n2)cc1OC,-17
10,Cc1cc(C(=O)NC2CC(C)n3ccnc32)nn1C(C)C (configuration not stated),70
11,CNCCc1cc(OC)c(OC)c2c1ccc1cc(OC)c(OC)cc12,7
12,CN1CC2CN(Cc3ccccc3)CC(C1)C2=O,-5
13,CN1CCC2CCN(C(=O)c3cc(C4CC4)on3)C2C1 (configuration not stated),13
14,O=C(NC1CCCCC1)N1C[C@@H]2C[C@H](C1)c1c(-c3ccccc3F)ccc(=O)n1C2,2
15,CCCC(=O)N(C(=O)CCC)c1ccc2[nH]c(=O)oc2c1,-1
16,CC1CN2CCCC2CN1C(=O)c1cc(C2CC2)on1 (configuration not stated),-9
17,Cc1nc(Cn2nc(C(C)(C)C)oc2=O)oc1C,9
18,CN(C)C(=O)CCCn1ccc(NC(=O)C2C(C)(C)C2(C)C)n1,-14
19,c1cc(-n2cnnn2)ccc1N[C@H]1CN2CCC1CC2,-5
20,CN(C)c1ccccc1NS(=O)(=O)c1c(Br)cc2[nH]c(=O)oc2c1Cl,2
21,CC1CCNC(=O)C1NC(=O)Nc1ccc(C#N)c(C(F)(F)F)c1 (configuration not stated),12
22,O=C(N1CCN(C(c2ccccc2)c2ccccc2)CC1)C(O)(c1ccccc1)c1ccccc1,-14
23,CC[C@H]1C[N@@]2CC[C@H]1C[C@@H]2COC(=O)Nc1ccccc1,7
24,O=C1CCN(C(=O)c2ccc(Cl)c(Cl)c2)CC1,12
25,c1cc(N2CC[C@@]3(CCCNC3)C2)c2sccc2n1,98

row,SMILES,% Inhibition [%]
1,Cc1ccc(Cl)c(NC(=O)N2CCC[C@H](c3n[nH]c(=O)o3)C2)c1,2
2,O=C1O[C@@H]2CCN(Cc3ccccc3)[C@H]1C2,-8
3,CC(C)N1CCN(c2nc3nc[nH]c(=O)c3s2)CC1,12
4,O=C1C2CCN(CC2)[C@H]1Cc1ccc(Cl)cc1,11
5,COC(=O)COc1ccc(C#N)c(Cl)c1,1
6,CC(=O)N(C1CCN(Cc2ccccc2)CC1)C1(C(=O)Nc2ccc3[nH]ccc3c2)CCN(C)CC1,101
7,O[C@@]1(Cc2ccccc2)CN2CCC1CC2,3
8,Cc1ccc(CN2CC(=O)N(C)CC23CCCCC3)nc1,-19
9,C=CCN(C)C[C@H]1CN2CC[C@H]1C[C@@H]2CNC(=O)Nc1ccc(OC(F)(F)F)cc1,17
10,C=CCCC(CN1C[C@H]2CC=CC[C@H]2C1)Oc1ncc(F)cn1 (some centres not stated),64
11,CCC1(CC)C(=O)N(CN2CCCC2=O)C(=O)N(CN2CCCC2=O)C1=O,-10
12,CN(C)S(=O)(=O)Nc1cccc(OC(=O)N2CCOCC2)c1,-17
13,CN1CC2(CN(Cc3cnc4ccc(Cl)cn34)C2)OC1=O,6
14,CCOc1ccccc1N1C(=O)NC(=O)[C@@]2(Cc3cc(C)ccc3N(C)C2)C1=O,-7
15,Clc1ccc(C2CC(c3cccnc3)Nc3nnnn32)cc1 (configuration not stated),-12
16,CC[C@H]1C[N@@]2CC[C@H]1C[C@@H]2COC(=O)Nc1ccc(C(C)(C)C)cc1,8
17,Cc1ccc(NC(=O)N2CCC(=O)CC2)cc1Br,1
18,Cn1nc(OC(=O)Nc2ccccc2)cc1C(F)(F)F,6
19,CN1CC[C@]2(CCN(c3ccnc4ccsc34)C2)C1,97
20,CN1CCC(N(C)C2CCCCC2N(C)C(=O)Cc2ccc(O)cc2)CC1 (configuration not stated),4
21,CC(C)N1C(=O)NC(=O)C2(Cc3ccccc3N3CCN(Cc4ccccc4)CC32)C1=O (configuration not stated),19
22,CN1CCc2nc3ccc(F)cc3c(C(N)=O)c2C1,-10
23,O=C1CCN(C(=O)c2ccc(F)c(Cl)c2)CC1,13
24,COC(=O)[C@H]1CN(Cc2noc(C)n2)C[C@@H]1c1ccc(F)cc1F,-16
25,COc1ccc(-c2ccccc2N2CCNCC2)c2ccc(C)nc12,10

row,SMILES,% Inhibition [%]
1,CC(C)c1nc(CC(=O)N2CCN(Cc3nnc4n3CCCCC4)CC2)cs1,-12
2,O=S(=O)(NC12CCCC1CNC2)c1onc(C2CC2)c1Cl (configuration not stated),97
3,O=C1N[C@](c2ccccc2)(C(F)(F)F)c2ccc3ccccc3c2O1,14
4,CNc1snc(C)c1C(=O)N1CCC(C(=O)OC)(c2ccccc2)CC1,4
5,COc1cc(=O)c(C(=O)N2CCC3(CC2)OCCO3)nn1-c1ccc(C)cc1,-1
6,FC1(F)C[C@@H](COc2cccnc2)N(C2CCCCC2)C1,12
7,CC[C@H](O)c1c[nH]c(C(=O)C(Cl)(Cl)Cl)c1,1
8,O=C(Cc1cnc2ccccn12)N1C[C@H]2CC[C@@H](C1)N(Cc1ccccn1)C2,20
9,CC(=O)N1N=C(c2cccnc2)O[C@H]1c1ccc(F)cc1,-20
10,CCn1nccc1CNCCc1ccccc1,8
11,Cc1ccc2c(c1)CCCN2C(=O)CN1CC=C(c2cnn(C)c2)CC1,37
12,CCC(CC)c1cc([C@H]2CN3CC[C@H]2C[C@@H]3CNC(=O)Cc2cccs2)nc(-c2ccncc2)n1,7
13,Cc1nn(C)cc1/C=C1\CC2C3CCC4CC(O)CCC4(C)C3CCC2(C)C1O (configuration not stated),7
14,Nc1ccc(N2CCN3CCC[C@H]3C2)cc1,22
15,O=c1c2cc(Cl)ccc2nc(-c2cccnc2)n1-c1ccc(Br)cc1,4
16,Cn1cc(Br)cc1C(=O)C(Cl)(Cl)Cl,-6
17,CC(Cc1ccccc1)NC1CN2CCC1CC2 (configuration not stated),13
18,COc1cccc(CNC(=O)N2CC[C@@H]3CCN(C)C[C@@H]32)n1,7
19,COC(=O)CNc1cc(C)c([C@@](O)(C(=O)OC)C(F)(F)F)cc1OC,6
20,COC(=O)C(O)(c1ccc2c(c1)C(O)(C(F)(F)F)C(=O)N2C(C)C)C(F)(F)F (configuration not stated),7
21,C[N+]12CCC(CC1)[C@@H](C(O)(c1cccc(Cl)c1)c1cccc(Cl)c1)C2,25
22,CN(C)[C@@H](Cn1c(=O)[nH]c2ccccc2c1=O)c1ccco1,-13
23,O=C(NCc1ccc(Br)cn1)[C@H]1NCC12CCCC2,4
24,COc1cc(OCC(=O)N2CCN([C@@H](C)Cc3ccccc3)CC2)cc(OC)c1OC,3
25,CCCC(=O)N(C1=CC2CCC(C1)N2C)c1ccccc1 (configuration not stated),8

row,SMILES,% Inhibition [%]
1,O=C1N(c2ccccc2)C(=O)C2(Cc3cc(C(F)(F)F)ccc3N3CCC(c4ccccc4)CC32)C(=O)N1c1ccccc1 (configuration not stated),4
2,CN1CCC2(CC1)CNc1ccccc12,0
3,Clc1cccc(CCN[C@H]2CCOC3(CCOCC3)C2)c1,10
4,C[C@@H]1N=C(c2ccccc2)c2cc(Cl)ccc2N(CC(=O)Nc2cccc(C(F)(F)F)c2)C1=O,11
5,CCCCC1(CCCC)C(=O)NC(=Nc2ccc(C)cc2)NC1=O,-20
6,O=c1[nH]c2cc(NS(=O)(=O)c3ccc(C4CCCCC4)cc3)ccc2o1,-14
7,CCN1CCC[C@H](NC(C2CCC2)C2CCC2)C1,10
8,CN1CCN(CCO[C@@H](c2cccc(Cl)c2)c2ccccc2Cl)CC1,9
9,O=C1CO[C@H]2CCN(Cc3cn4ccc(Br)cc4n3)C[C@@H]2N1,8
10,CCC(CC)c1cc([C@H]2CN3CC[C@H]2C[C@@H]3CNS(=O)(=O)Cc2ccccc2)nc(-c2ccncc2)n1,60
11,C[C@@H](Cc1ccc(O)cc1)NCc1cc[nH]n1,12
12,COc1snc(C(Cl)(Cl)Cl)c1Cl,0
13,O=C(NCc1cc(F)cc(F)c1)c1cn(Cc2ccc(F)cc2)nn1,-22
14,CCN(CC)CCC1C(=O)N(c2ccccc2)C(=O)N(c2ccccc2)C1=O,8
15,CCOc1ccccc1NC(=O)c1cn(Cc2ccc(N)cc2)cn1,6
16,O=C(c1ccccc1)c1cc(Cl)ccc1NC(=O)[C@H]1CC(=O)N(c2ccc(F)cc2)C1,96
17,Cn1cc(/C=C2\CC3C4CCC5CCCCC5(C)C4CCC3(C)C2O)cn1 (configuration not stated),6
18,CCn1cnc2c(N3C4CCC3C(C(=O)OC(C)(C)C)C4)ncnc21 (configuration not stated),-8
19,C=CC1CN2CCC1CC2C12Nc3ccccc3C1(O)CCO2 (configuration not stated),-15
20,CCN(CC)C(=O)Oc1cc2nnnn2nc1-c1ccccc1,6
21,Cc1ccc(C2CC(c3cccnc3)Nc3ncnn32)cc1 (configuration not stated),7
22,Cc1ccc(C(O)(c2ccc(C)c(C)c2)[C@H]2C[N@]3CC[C@@H]2CC3)cc1C,11
